Results reported in paper PMC5610480, “Original Chemical Series of Pyrimidine Biosynthesis Inhibitors That Boost the Antiviral Interferon Response” (Antimicrobial Agents and Chemotherapy, 2017).

System: ISRE-luciferase reporter gene
Assay: ISRE-luciferase response to ssRNA transfection in STING-37 cells
Conditions: 24 h, DD778, DD786 30 μM, dicoumarol 60 μM

| Structure (SMILES) | ISRE-luciferase expression in response to ssRNA transfection |
| --- | --- |
| Cc1ccc2oc(=O)c3c(c2c1)OC([N+](=O)[O-])C3c1c[nH]c2ccccc12 (stereo not drawn) [DD778] | amplified |
| Cc1cc2c(c(=O)o1)C(c1c[nH]c3ccccc13)C([N+](=O)[O-])O2 (stereo not drawn) [DD786] | no effect |
| O=c1oc2ccccc2c(O)c1Cc1c(O)c2ccccc2oc1=O [Dicoumarol, dicoumarol, reference compound] | amplified |
